Reference: patent publication US5965537A, “Dolastatin 15 derivatives with carbonyl and heterocyclic functionalities at the C-terminus” (BASF Aktiengesellschaft, priority 1997, dated 1999)
At least one peptide structure holds a part that was inferred or is arguable (an end, a ring closure or a residue).

How the values were obtained:
[1] = test system: HT-29 colon carcinoma cells; assay: Cytotoxicity, microculture tetrazolium assay (MTT), HT-29 cell system; type: cell-based; conditions: 48 hours incubation, T/C of 50% growth inhibition
Protocol: Cytotoxicity was measured using standard methodology for adherent cell lines, such as the microculture tetrazolium assay (MTT). Details of this assay have been published (Alley, M. C., et al., Cancer Research, 48: 589-601,(1988)). Exponentially growing cultures of HT-29 colon carcinoma cells were used to make microtiter plate cultures. Cells were seeded at 5000-20,000 cells per well in 96-well plates (in […] of media), and grown overnight at 37° C. Test compounds were added, in 10-fold dilutions varying from 10^-4 M to 10^-10 M. Cells were then incubated for 48 hours. To determine the number of viable cells in each well, the MTT dye was added ([…] of a 3 mg/ml solution of 3-(4,5-dimethylthiazol-2-yl)-2,5-diphenyltetrazolium bromide in saline). This mixture was incubated at 37° C. for 5 hours, and then […] of 25% SDS, pH 2, was added to each well. After an overnight incubation, the absorbance of each well at 550 nm was read using an ELISA reader. The values for the mean ±SD of data from replicated wells were calculated, using the formula % T/C (% viable cells treated/control). The concentration of test compound which gives a T/C of 50% growth inhibition was designated as the IC50.
Table 9, below, presents the IC50 values determined in the HT-29 cell system: […]

[2] = test system: P388 murine lymphocytic leukemia; assay: P388 murine lymphocytic leukemia screening model; type: in vivo; conditions: intravenously for 5 consecutive days, P388 mice

SMILES	IC50 [1]	other results
CC(C)[C@H](NC(=O)[C@H](C(C)C)N(C)C)C(=O)N(C)[C@H](C(=O)N1CCC[C@H]1C(=O)N1CCC[C@H]1C(=O)Cc1ccccc1)C(C)C [Compound I-14, (S)-(Me2 Val-Val-MeVal-Pro-pyrrolidin-2-yl)benzylketone]	400 nM	
CC(C)[C@H](NC(=O)[C@H](C(C)C)N(C)C)C(=O)N(C)[C@H](C(=O)N1CCC[C@H]1C(=O)N1CCC[C@H]1C(=O)c1ccccc1)C(C)C [Compound I-15, (S)-(Me2 Val-Val-MeVal-Pro-pyrrolidin-2-yl)phenylketone]	1700 nM	MST (mean survival time) ([2]; Dose 50 mg/kg): 15 days; T/C% (treated/control%, increase in lifespan relative to the control) ([2]; Dose 50 mg/kg): 136%; MST (mean survival time) ([2]; Dose 60 mg/kg): 16 days; T/C% (treated/control%, increase in lifespan relative to the control) ([2]; Dose 60 mg/kg): 145%; MST (mean survival time) ([2]; Dose 75 mg/kg): 17 days; T/C% (treated/control%, increase in lifespan relative to the control) ([2]; Dose 75 mg/kg): 155%
CC(C)[C@H](NC(=O)[C@H](C(C)C)N(C)C)C(=O)N(C)[C@H](C(=O)N1CCC[C@H]1C(=O)N1CCC[C@H]1C(=O)c1ccc(C(F)(F)F)cc1)C(C)C [Compound I-19, (S)-(Me2 Val-Val-MeVal-Pro-pyrrolidin-2-yl)-(4-trifluoromethylphenyl)-ketone]	> 1000 nM	
COc1ccccc1C(=O)[C@@H]1CCCN1C(=O)[C@@H]1CCCN1C(=O)[C@H](C(C)C)N(C)C(=O)[C@@H](NC(=O)[C@H](C(C)C)N(C)C)C(C)C [Compound I-20, (S)-(Me2 Val-Val-MeVal-Pro-pyrrolidin-2-yl)-(2-methoxyphenyl)-ketone]	280 nM	
COc1ccc(C(=O)[C@@H]2CCCN2C(=O)[C@@H]2CCCN2C(=O)[C@H](C(C)C)N(C)C(=O)[C@@H](NC(=O)[C@H](C(C)C)N(C)C)C(C)C)c(OC)c1 [Compound I-37, (S)-(Me2 Val-Val-MeVal-Pro-pyrrolidin-2-yl)-(2,4-bis(methoxy)phenyl)-ketone]	300 nM	
COc1cc(C(=O)[C@@H]2CCCN2C(=O)[C@@H]2CCCN2C(=O)[C@H](C(C)C)N(C)C(=O)[C@@H](NC(=O)[C@H](C(C)C)N(C)C)C(C)C)cc(OC)c1OC [Compound I-39, (S)-(Me2 Val-Val-MeVal-Pro-pyrrolidin-2-yl)-(3,4,5-tris(methoxy)phenyl)-ketone]	> 1000 nM	
CC(C)[C@H](NC(=O)[C@H](C(C)C)N(C)C)C(=O)N(C)[C@H](C(=O)N1CCC[C@H]1C(=O)N1CCC[C@H]1C(=O)c1nccs1)C(C)C [Compound I-49, (S)-(Me2Val-Val-MeVal-Pro-pyrrolidin-2-yl)-(2-thiazolyl)-ketone]	> 1000 nM	
CCOC(=O)CC(=O)[C@@H]1CCCN1C(=O)[C@@H]1CCCN1C(=O)[C@H](C(C)C)N(C)C(=O)[C@@H](NC(=O)[C@H](C(C)C)N(C)C)C(C)C [Compound I-63, Ethyl(S)-(Me2 Val-Val-MeVal-Pro-pyrrolidin-2-yl)-3-oxo-propionate]	40 nM	
Cc1cc(C2CCCN2C(=O)[C@@H]2CCCN2C(=O)[C@H](C(C)C)N(C)C(=O)[C@@H](NC(=O)[C@H](C(C)C)N(C)C)C(C)C)no1 (some centres unmarked) [Compound V-2]	3000 nM	
Cc1csc([C@@H]2CCCN2C(=O)[C@@H]2CCCN2C(=O)[C@H](C(C)C)N(C)C(=O)[C@@H](NC(=O)[C@H](C(C)C)N(C)C)C(C)C)n1 [III-26, 2-[(S)-(Me2 Val-Val-MeVal-Pro-pyrrolidin-2-yl)]-4-methyl-thiazole]	> 1000 nM	
CC(C)[C@H](NC(=O)[C@H](C(C)C)N(C)C)C(=O)N(C)[C@H](C(=O)N1CCC[C@H]1C(=O)N1CCC[C@H]1c1ncc(C(C)(C)C)s1)C(C)C [III-32, 2-[(S)-(Me2Val-Val-MeVal-Pro-pyrrolidin-2-yl)]-5-tert.-butyl-thiazole]	> 1000 nM	
CC(C)[C@H](NC(=O)[C@H](C(C)C)N(C)C)C(=O)N(C)[C@H](C(=O)N1CCC[C@H]1C(=O)N1CCC[C@H]1c1nc(-c2ccccc2)cs1)C(C)C [III-35, 2-[(S)-(Me2 Val-Val-MeVal-Pro-pyrrolidin-2-yl)]-4-phenyl-thiazole]	> 1000 nM	
CC(C)[C@H](NC(=O)[C@H](C(C)C)N(C)C)C(=O)N(C)[C@H](C(=O)N1CCC[C@H]1C(=O)N1CCC[C@H]1c1ncc(-c2ccccc2)s1)C(C)C [III-36, 2-[(S)-(Me2 Val-Val-MeVal-Pro-pyrrolidin-2-yl)]-5-phenylthiazole]	400 nM	
CCOC(=O)c1csc([C@@H]2CCCN2C(=O)[C@@H]2CCCN2C(=O)[C@H](C(C)C)N(C)C(=O)[C@@H](NC(=O)[C@H](C(C)C)N(C)C)C(C)C)n1 [III-46, 2-[(S)-(Me2 Val-Val-MeVal-Pro-pyrrolidin-2-yl)]-4-carbonylethoxythiazole]	600 nM	
